Reference: paper PMC4336329 (PLoS ONE, 2015)
Screen size: about 310,000 compounds; about 14,000 (4.5%) showed an effect of 50% or more. The effect is printed as a negative number. Some of the results follow.

Molecular target: human ether-à-go-go-related gene (hERG) potassium channel (human, UniProt Q12809)
Assay: primary screen, population patch clamp on CHO cells stably expressing hERG
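Also: peak tail current of the secondary pulse compared with the same well before compound.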

Chain of human ether-à-go-go-related gene (hERG) potassium channel (Q12809 whole entry, looked up): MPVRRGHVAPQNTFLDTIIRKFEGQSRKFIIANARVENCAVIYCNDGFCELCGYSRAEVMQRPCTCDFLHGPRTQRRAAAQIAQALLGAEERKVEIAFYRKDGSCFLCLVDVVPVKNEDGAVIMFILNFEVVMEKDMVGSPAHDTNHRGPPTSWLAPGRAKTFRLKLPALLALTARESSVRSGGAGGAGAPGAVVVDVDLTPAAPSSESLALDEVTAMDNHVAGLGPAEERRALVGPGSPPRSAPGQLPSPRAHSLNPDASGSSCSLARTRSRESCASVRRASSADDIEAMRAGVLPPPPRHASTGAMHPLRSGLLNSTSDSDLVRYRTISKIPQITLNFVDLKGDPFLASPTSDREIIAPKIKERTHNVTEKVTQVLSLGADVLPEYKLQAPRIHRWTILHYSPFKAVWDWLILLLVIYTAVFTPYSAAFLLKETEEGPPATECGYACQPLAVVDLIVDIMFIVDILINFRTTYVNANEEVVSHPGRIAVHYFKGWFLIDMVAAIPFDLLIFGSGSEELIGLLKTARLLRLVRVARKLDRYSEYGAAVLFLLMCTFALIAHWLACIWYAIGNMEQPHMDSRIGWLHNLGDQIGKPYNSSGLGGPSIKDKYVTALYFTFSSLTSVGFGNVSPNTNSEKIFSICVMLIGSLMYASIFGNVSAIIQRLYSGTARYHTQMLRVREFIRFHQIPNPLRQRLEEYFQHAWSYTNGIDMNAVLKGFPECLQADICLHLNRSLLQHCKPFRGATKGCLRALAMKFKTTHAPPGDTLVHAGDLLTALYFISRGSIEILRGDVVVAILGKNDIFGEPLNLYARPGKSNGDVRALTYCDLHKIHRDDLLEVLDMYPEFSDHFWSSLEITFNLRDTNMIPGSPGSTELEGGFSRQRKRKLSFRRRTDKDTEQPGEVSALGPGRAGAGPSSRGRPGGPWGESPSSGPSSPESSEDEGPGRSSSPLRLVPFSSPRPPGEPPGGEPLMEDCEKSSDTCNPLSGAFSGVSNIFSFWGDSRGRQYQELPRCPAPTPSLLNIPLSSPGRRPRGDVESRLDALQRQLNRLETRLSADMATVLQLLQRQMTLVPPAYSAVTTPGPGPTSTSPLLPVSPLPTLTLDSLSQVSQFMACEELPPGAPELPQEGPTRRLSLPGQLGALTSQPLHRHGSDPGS

Compound	hERG current change (%, negative = inhibition) at 10uM
Cc1ccc(NC(=O)C2COc3ccccc3O2)nc1 (stereo not shown)	13.9%
O=C(CN1C(=O)S/C(=C\C=C\c2ccccc2)C1=O)Nc1cccc(O)c1	-12.8%
CC1CCc2cc(F)ccc2N1C(=O)CCC(=O)O (stereo not shown)	2.53%
CC1(C)CC(=O)c2c(O)cc(OCC(=O)N3CCN(c4ccc(F)cc4)CC3)cc2O1	-47.1%
Cc1cc(Cl)ccc1OCC(=O)NNC(=O)c1cccs1	7.9%
CSCCC(NS(=O)(=O)c1ccc(Cl)cc1)C(=O)OCC(=O)N1CCOCC1 (stereo not shown)	-14.1%
CC1CCC(NC(=S)NCCN(C)C)CC1 (stereo not shown)	18.1%
COc1ccc(C(C(=O)NC2CCCC2)N(CCN(C)C)C(=O)c2snc(C(N)=O)c2N)cc1 (stereo not shown)	-25%
CCOC(=O)c1c(NC(=O)CSc2nnc(N)s2)sc(C)c1-c1ccc(C)cc1	14.4%
Cc1nn(-c2ccccc2)c(-c2ccccc2)c1C(=O)O	7.74%
COc1ccccc1N1CCN(CC(=O)Nc2nccs2)CC1	-19.3%
O=C(COc1ccc2ccc(=O)oc2c1)Nc1ccc2c(c1)OCCO2	-7.75%
CCOc1cc(/C=C2\SC(=O)N(CC(=O)Nc3ccccc3F)C2=O)cc([N+](=O)[O-])c1O	-4.42%
CCOc1ccc(CCNC(=O)c2cnc(C)cn2)cc1OCC	13.8%
O=C(c1cc(-c2ccccc2O)on1)N1CCCCCC1	8.75%
O=C1/C(=C/c2cccc(Br)c2)SC(=S)N1CCC(=O)N(CCO)c1ccccc1	16.7%
Cc1c(NC(=S)NC(=O)C(C)(C)C)cccc1[N+](=O)[O-]	-3.64%
O/C(=C\c1nc2ccccc2[nH]1)c1cccs1	-23.2%
Cc1ccc(N/N=C2\CS(=O)(=O)N(C)c3ccsc32)cc1	7.82%
O=C(NC1Cc2ccccc2C1)c1cc(COc2cccc(C(F)(F)F)c2)on1	21.6%
COc1ccc(-c2csc(Nc3cc(C)ccn3)n2)cc1OC	13.6%
CC(=O)Nc1ccc(S(=O)(=O)NCCc2ccccc2)cc1	0.996%

Compound	hERG current change (%, negative = inhibition) at 10uM
CCCCSCCCNC(=O)c1ccc2c(c1)N(CC)C(=O)c1ccccc1S2=O (stereo not shown)	-11.1%
CCOC(=O)c1cnc2c(C(=O)OC)cccc2c1NCc1ccco1	-70.2%
COC(=O)C1=C[C@@H](C(=O)OC)C2C3=C(C(=O)C24CCCCC4)[C@H](C)n2c(=O)n(C)c(=O)n2[C@@H]3C1 (stereo partly shown)	4.06%
COc1ccc(NS(=O)(=O)c2cccs2)c(OC)c1	-12.2%
O=C(N1CCOCC1)N(Cc1cccs1)C1CCCC1	7.75%
Cc1ccc(Sc2cc(C(=O)c3ccccc3C(=O)O)ccc2[N+](=O)[O-])cc1	18.8%
COC(=O)c1ccsc1NC(=O)CCS(=O)(=O)c1ccc(Cl)cc1	6.67%
Cc1ccc(S(=O)(=O)NC(=NCC(=O)O)c2ccccc2)cc1	2.94%
COc1ccccc1CNC(=O)COC(=O)c1ccc(C)c(S(=O)(=O)N2CCOCC2)c1	2.68%
CCOC(=O)C1(C(F)(F)F)N=C(c2ccccc2F)OC(N(C)C)=N1 (stereo not shown)	0.889%
Cc1ccc2ncc([N+](=O)[O-])n2c1	-5.11%
COC(=O)c1ccccc1NC(=O)CSc1nnc(-c2ccncc2)o1	2.32%
Cc1ccc(C(=O)NC2CCN(C(=O)N3CCOCC3)CC2)cc1	8.72%
COc1ccc(NC(=S)N2CCCN(Cc3cc(C)ccc3C)C2)cc1	-12.7%
CCN=C1SC(CC(=O)NCC)C(=O)N1CC (stereo not shown)	-12.5%
Cc1cc(S(=O)(=O)N2CCOCC2)ccc1OCC(=O)N1CCCCC1	14.1%
NC1=NC(=O)C(CC(=O)NCc2ccccc2)S1 (stereo not shown)	16.1%
CCCC(=O)Nc1ccc2c(c1)C(=O)N(CCC(=O)O)C2=O	1.2%
Cc1cc(NC(=O)NC(=O)c2cccc(OC(F)(F)C(F)F)c2)n[nH]1	7.39%
CCOC(=O)c1ccc(NC(=O)CC2C(=O)N(c3ccc(F)cc3)C(=O)N2CCC(C)C)cc1 (stereo not shown)	-8.43%
O=C1CC(Sc2nnnn2-c2ccccc2)C(=O)N1c1cccc(Cl)c1 (stereo not shown)	-7.3%
Cc1occc1-c1nnc(SCC(=O)Nc2ccccc2)n1C(C)c1ccccc1 (stereo not shown)	-37.6%

Compound	hERG current change (%, negative = inhibition) at 10uM
O=C(COC(=O)CCCC1=NS(=O)(=O)c2ccccc2N1)Nc1ccccc1	24.7%
O=C(CC1Nc2ccccc2NC1=O)NCCCN1CCCCCC1 (stereo not shown)	13.2%
CCc1ccccc1NC(=S)N(CCN1CCCCC1)Cc1ccco1	-46.7%
N#C/C(=C\c1c[nH]c2ccc(Br)cc12)c1ccccn1	16.7%
O=C(Nc1ccccc1F)Nc1cc(Cl)ccc1-n1cncn1	18.8%
CC(C)(C)c1ccc(C(=O)NCCOc2ccccc2)cc1	-0.785%
CCc1cc(C(=O)Nc2ccccc2)cs1	-2.26%
Cc1ccc(NC(=S)NC(=O)c2ccc(F)cc2)cc1S(=O)(=O)Nc1ccccc1Cl	6.08%
CCn1nc(C)cc1C(=O)OCC(=O)c1ccc(Cl)cc1	12.1%
COc1ccc2nc(SCC(=O)N(C)C3CCCCC3)[nH]c2c1	6.52%
C/C(=N\NC(=O)Cc1cccc2ccccc12)c1ccncc1	-28.4%
Cc1onc(-c2ccccc2)c1C(=O)NCCc1ccc(S(N)(=O)=O)cc1	5.71%
Cc1ccccc1NC(=O)Cn1nc(C)c2ccccc2c1=O	3.92%
O=C(COc1ccc(S(=O)(=O)N2CCOCC2)cc1Cl)NCCN1CCOCC1	4.72%
O=C(Nc1ccc(CN2CCS(=O)(=O)CC2)cc1)c1ccccc1	-0.04%
Cc1cccc(C(=O)NC2CCN(C(=S)NCc3ccco3)CC2)c1	-46.7%
O=C(CCl)Nc1ccc2c(c1)OCO2	0.307%
COc1ccc(-c2[nH]ncc2CN(CCO)Cc2cccs2)c(F)c1	4.65%
COc1cc(OC)cc(C(=O)Oc2ccc(/C=N/Nc3nc4ccccc4s3)cc2OC)c1	12.3%
CCC(=O)Nc1cccc(C2=NOC3(C2)C[C@@H](C(N)=O)N(C(=O)c2ccc(OC)cc2)C3)c1 (stereo partly shown)	4.44%
CC(C)(C)c1nnc(N/N=C/c2ccccc2O)n(N)c1=O	-35%
O=C1CCN(CCCc2ccccc2)CCN1[C@H](CO)Cc1ccccc1	-40.6%

Compound	hERG current change (%, negative = inhibition) at 10uM
COCCCNC(=S)NNC(=O)c1cc(-c2cccnc2)nc2ccccc12	10.8%
Cc1ccc(S(=O)(=O)N2[C@@H](c3ccccc3)C(C(=O)O)=CC[C@H]2c2ccc(Cl)cc2)cc1	18.6%
COC(=O)C12CCC3(SCCS3)C(C(=O)OC)(CCC13SCCS3)C2	-15.9%
Cc1cc(C)n(-c2nc3ccccc3nc2N2CCCCCC2)n1	-13.5%
COc1cc(C2NC(=O)NC(C)=C2C(=O)OC(C)C)ccc1OC(=O)c1ccco1 (stereo not shown)	5.9%
CC(Oc1ccc2c3c(c(=O)oc2c1)CCCC3)C(=O)NCc1ccncc1 (stereo not shown)	4.36%
Cc1cccc(NC(=O)c2ccccc2NC(=O)CCC(=O)O)c1	2.31%
CCCCNC(=O)OCCNC(=O)NC	19.4%
O=C(O)CC(CNS(=O)(=O)c1ccccc1)c1ccccc1 (stereo not shown)	20.5%
CC1CCCCN1C(=O)c1ccc(OC2CCN(S(=O)(=O)N(C)C)CC2)cc1 (stereo not shown)	3.61%
COc1ccc(N(Cc2cc3cccc(C)c3[nH]c2=O)S(=O)(=O)c2ccc(OC)cc2)cc1	17.5%
CCC1Nc2ncnc(N3CCN(c4ccccc4)CC3)c2N(Cc2ccc(OC)cc2)C1=O.O=C(O)C(F)(F)F (stereo not shown)	-6.09%
COc1ccc(S(=O)(=O)NCC2CCCN(Cc3cccc(C(C)=O)c3)C2)cc1 (stereo not shown)	-43.9%
COc1ccc2nc(NC(=O)CSC3=NCCS3)sc2c1	0.0244%
Cc1ccc(C(=O)CC(=O)c2ccc(C(C)(C)C)cc2)cc1	15.3%
Cc1sc2nc(CSCC(=O)N(C)CC(=O)Nc3ccc(F)cc3)[nH]c(=O)c2c1C	-17.8%
CC(=O)Nc1ccc(N(CC(=O)NCC2CCCO2)C(=O)CCC(=O)Nc2cc(C)on2)cc1 (stereo not shown)	17.5%
CCOc1ccc(N2C(=O)CC(NC3CCN(C(=O)c4cccc(Cl)c4)CC3)C2=O)cc1 (stereo not shown)	-34.6%
Cn1c(=O)c2[nH]c(N3CCN(c4cccc(O)c4)CC3)nc2n(C)c1=O	28.1%
CCN1C(=O)C2(C(C#N)=C(N)Oc3n[nH]c(COC)c32)c2ccccc21 (stereo not shown)	-1.58%
COc1cccc(C(=O)Nc2c(F)c(F)c(F)c(F)c2F)c1	-11.8%
O=C(O)CCn1nc(-c2ccc(F)cc2)cc(Cc2ccccc2)c1=O	10.6%
